Source: the supplement of paper PMC8277577

biological target: SARS-CoV-2 Wuhan-Hu-1 spike receptor-binding domain; assay: ELISA binding EC50; higher = weaker binding; ELISA of recombinant human antibody on coated antigen, from 10 µg/ml in fourfold dilutions; four-parameter fit.

Row | Binder | ELISA binding EC50 [ng/mL]
1 | C1002 (protein) chain 1: EVQLVESGGGLVQPGGSLRLSCAASEFIVSSNYMTWVRQAPGKGLEWVSIMYPGGSTFYADSVKGRFTISRDNSKNTLYLQINRLRAEDTAVYYCARDIAGRLDYWGQGTLVTVSS chain 2: DIQMTQSPSSLSASVGDRVTITCQASQDINNYLNWYQQKPGKAPKLLIYDASNLETGVPSRFSGSGSGTDFSFTISSLQPEDIATYYCQQYDNLSRLTFGGGTKVEIK | 0.83
2 | C844 (protein) chain 1: EVQLVESGGGLVKPGGSLRLSCVATGFSFSDAWMNWVRQAPGKGLEWVGRIRSEIADGTTDYAAPVKGRFTISRDDARNTLYLQMNSLEIEDTAVYYCTTGVVVVVSSSPDDAFDVWGQGTMVTVSS chain 2: DIQMTQSPSSLSASVGDRVTITCRASQSIGHYLNWYQQKPGKAPKLLIYAASSLQSGVPSRFSGSGSGAGFTLTVNGLQPEDLATYYCQQYYTTPPTFGQGTKVEIK | 1.28
3 | C1003 (protein) chain 1: QVQLVESGGGVVQPGRSLRLSCAASGFAFSSYGMNWVRQAPGKGLEWVTTVSSDGNVNYYIDSVKGRFTISRDNSKNTLYLQMNSLRGDDTAVYYCAKGPRFGWSYRGGSGFDIWGQGTMVTVSS chain 2: DIQMTQSPSSLSASVGDRVTITCQASQDISNYLNWYQQKPGKAPKLLIYDASNLETGVPSRFSGSGSGTDFTFTITSLQPEDIATYYCQQYDNLPITFGQGTRLEIK | 1.82
4 | C1006 (protein) chain 1: QVQLVQSGAEVRKPGSSVKVSCKASGGPFDQYTFSWVRQAPGQGLEWMARITPVVDLTNYAQKFQGRITIITDKSTSTAYMELSSLRSEDTAIYYCATPLNDYYASGNLGLWGQGTLVTVSS chain 2: DIQMTQSPSSLSASIGDRVTITCRASQGISYYLAWFQQKPGEAPRSLIYDASSLQSGVPSKFSGSGSGTDFTLTISSLQPEDSATYYCQQYNSYPLTFGGGTKVEIK | 2.04
5 | C1007 (protein) chain 1: QVQLVQSGSEMKKPGSSVKVSCKAAGGTLNTHTFSWVRQAPGQGLEWMGRITPTVDLTNYAQKFQGRITITADTSTNTAYLELRRLRSEDTAIYYCATPLNDYYASGNLGLWGQGTLVTVSS chain 2: DIQMTQSPSSLSASIGDTVTITCRASQGISYYLAWFQRKPGKAPKSLIYDASSLQSGVPSKFSGSGSGTDFTLTISSLQPEDSATYYCQQYSTYPLTFGGGTKVEIK | 3.22
6 | C1008 (protein) chain 1: EVQLVESGGGLIQPGGSLRLSCAASGFTVSSNYMSWVRQAPGKGLEWVSVIYSGGSTYYADSVKGRFTISRDNSKNTLYLQMNSLRAEDTAVYYCARVVGYDFWSGYDGGYFDYWGQGTLVTVSS chain 2: QSALTQPASVSGSPGQSITISCTGTSSDVGSYNLVSWYQQHPGKAPKLMIYEVSKRPSGVSNRFSGSKSGNTASLTISGLQAEDEADYYCCSYAGSSTWVFGGGTKLTVL | 17.2
7 | C1009 (protein) chain 1: EVQLVESGGGLLQPGGSLRLSCAASGFSVSSNYMTWVRQAPGKGLEWVAAIYSGDSTYYVDSVKGRFIISRDNSKNTVYLHLSSLRAEDTAVYYCARLVGYDFRSGSDGGYFDYWGHGTLVTVSS chain 2: QSALTQPASVSGSPGQSITISCTGTSSDIGNYNLVSWYQQHPGKAPKLMIYDVSKRPSGVSNRFSGSKSGNTASLTISGLQAEDETDYYCCSYAGSSTWVFGGGTKLTVL | 1.34
8 | C1010 (protein) chain 1: QVQLVESGGGVVQPGRSLRLSCAASGFTFSSYAMHWVRQAPGKGLEWVAVISYDGSNKYYADSVKGRFTISRDNSKNTLYLQMNSLRAEDTAVYYCAKKGQPYCGGDCYFYYFDYWGQGTLVTVSS chain 2: DIQMTQSPSSLSASLGDRVTITCQASQDISNYLNWYQQKPGKAPKLLIYDASNLETGVPSRFSGSGSGTDFTFTISSLQPEDIATYYCQQYDNLPPITFGQGTRLEIK | 2.45
9 | C1011 (protein) chain 1: QVQLVESGGGVVQPGRSLRLSCAVSGFTFSHYAMHWVRQAPGKGLEWVAVISYDGADKYYADSVRGRFTIARDNSKNTLFLQMSSLRPEDTAVYYCAKKGQPYCGGDCHFYYLDYWGQGTLVTVSS chain 2: DIQMTQSPSSLSASVGDRVTITCQASQDISNHLNWYQQKPGKAPKLLIYDASNLETGVPSRFSGSGSGTDFTFTISSLQAEDIATYYCQQYDNLPPITFGQGTRLEIK | 1.49
10 | C1012 (protein) chain 1: QVQLVQSGAEVKKPGSSVKVSCKASGGTVNNYAINWVRQAPGQGLEWMGGIVPIFGTPNYAQKFQGRVTITADESTSTAYMELSSLRSEDTAVYYCAKVSLTLPIAAAPRFWFDSWGQGTLVTVSS chain 2: EIVMTQSPATLSVSPGERATLSCRASQSVSSHLAWYQQKPGQAPRLLIYGASTRATGIPARFSGSGSGTEFTLTISSLQSEDFAVYYCQQYHNWPPALTFGGGTKVEIK | 3.29
11 | C1013 (protein) chain 1: QVQLVQSGVEVKKPGSSVKVSCKASGGTFTDYAFSWVRQAPGQGLEWMGGIVPIFATPDYAEKFRGRVTITADESTSTAYMELSTLKSEDTAVYYCARASLTLPIRAAPRFWFDAWGQGTLVTVSS chain 2: EIVMTQSPATLSVSPGERATLSCRASQGVSTHLAWYQQKPGQAPRLLIYGASTRATGIPARFSGSGSGTEFTLTISSLQSEDFAVYYCQQYHKWPPALTFGGGTKVEIK | 8.92
12 | C845 (protein) chain 1: QVQLQESGPGLVKPSQTLSLTCTVSGASISSGEYYWSWVRQPPGKGLEWVGYIYYSGSTYYNPSLKSRVTISVDTSKNHFSLKLKSLTAADTAVYFCATGGLSAFGELFPHDKWGQGTLVTVSS chain 2: EIVLTQSPATLSLSPGERATLSCRASQSVGSDLAWYQQKPGQAPRLLIYDTSNRATGIPARFSGSGSGTDFTLTISSLDPADFAVYYCQQRTNWLFSFGPGTKVDIK | 1.39
13 | C1014 (protein) chain 1: QVQLQESGPGLVRPSQTLSLTCTVSGGSIGSGAYWSWIRQHPAKGLEWIGYVYYSGSTFYNPSLETRVSISVDISKDQFSLELTSVTVADTAVYYCAREKIEVVSIEMRPHYYGIDVWGQGTTVTVSS chain 2: EIVMTQSPATLSVSPGERATLSCRASQSISSNLAWYQQKPGQPPRLLIYGASTRATGIPARFSGSGSGTEFTLTISSLQSEDIAVYYCQHYNNWPPWTFGQGTKVDIK | 2.95
14 | C1016 (protein) chain 1: QVQLQESGPGLVKPSGTLSLTCAVSGGPISSNHWWSWVRQPPGKGLEWIGEVYRNGNTNYHPSLKSRVTMSIDNSKNQFSLSLTSVTAADTAVYYCARGGDLAMGPEYLDFWGQGTLVTVSS chain 2: QSALTQPASVSGSPGQSITISCTGTSSDVGANNYVSWYQQHPGKAPKLMIYDVINRPSGVSDRFSGSKSGNTASLTISGLQAEDEADYYCSSFSTSSTLLFGGGTKLTVL | 2.16
15 | C1018 (protein) chain 1: QVQLVESGGGVVQPGRSLRLLCAASGFTFNTHGMHWVRQAPGKGLEWVAVIWFDGSNKYYADSVKGRFTISRDNSTNTLYLQMNSLRAEDTAVYYCARVYGGLPYYYAIDVWGQGTTVTVSS chain 2: QSVLTQPPSVSGAPGQRVTISCAGSSSNIGAGYGVHWSQQLPGRPPKLLIYGDSNRPSGVPDRFSGSNSGTSASLAITGLQAEDEAVYYCQSYDRSLRAWVFGGGTKLSVL | 3.09
16 | C1019 (protein) chain 1: QVQLVESGGGVVQPGTPLRLSCAASGFTFSSYAMHWVRQAPGKGLEWVAMISYDGGNKYYADSVKGRFTISRDNSKNTLFLQMNSLRGEDTAVYYCARSFSIRIGHKDNWGQGTLVTVSS chain 2: NFMLTQPHSVSESPGKTVTISCTGSSGSIANNYVQWYQQRPGSAPTPVIYEDDQRPSGVPDRFSGSIDSSSNSASLSISGLKTEDEADYYCQSYDSTNFWVFGGGTKLTVL | 2.8
17 | C1020 (protein) chain 1: QVQLVQSGAEVKKPGASVKISCKASGYSFSNYYIHWVRQAPGQGLEWMGIINPSGNSISYAQKFQGRVTMTGDTSTSTVYMELSSLRSEDTAVYYCARSVFPVPAAGGCDYWGQGTLVTVSS chain 2: DIQMTQSPSSLSASVGDRVTITCRASQSITTSLNWYQQKPGKAPKLLIYSASTLESGVPSRFSGSGSGTDFTLTISSLQPEDFATYYCQQTYRAPPYTFGQGTKLEIK | 2.06
18 | C1021 (protein) chain 1: QVQLVQSGAELKKPGASVKVSCKASGYTFSTYYIHWVRQAPGQGLEWMGIINPEAGSTSYAQKFQGRVTMTTDTSTSTVYMELISLRSQDTAIYYCARDAVGVPAINSLEYWGQGTLVTVSS chain 2: EIVLTQSPATLSLSPGERATLSCRASQSISSYLAWYQQKPGQAPRLLIYDASNRATDISARFSGSGSGTDFTLTISSLEPEDFAVYYCQHRSNWPPSFTFGGGTKVEIK | 2.53
19 | C1022 (protein) chain 1: QVQLVQSGAEVKTPGASVKVSCQASGDTFTSQYLHWVRQAPGQGLEWMGIINPTAGSTTYAQKFQGRVTMTRDTSTSTVYMELRSLRSEDMAVYYCARGGFIPMVRGFIDHWGQGTLVTVSS chain 2: QSALTQPASVSGSPGQSITISCTGTSSDVGGYNYVSWYQQHPGKAPKLMIYDVSNRPSGVSTRFSGSKSGNTASLTISGLQAEDEADYYCSSPTSSNTHVFGTGTKVTVL | 1.66

Recombinant human monoclonal antibodies (heavy:light variable regions). ELISA EC50 on the named antigen, from 10 µg/ml down; lower = stronger. No active / inactive call.
